In PubChem BioAssay (NCI):
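Five concentrations, 48 hours, 96-well plates. At the GI50, growth is halved. TGI: total growth inhibition.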 Square brackets hold non-standard residues; d marks the D form. Peptide text beside a SMILES is read from it. pGlu = O=C1CC[CH](C(=O)O)N1

These molecules were tested on NCI-H322M lung (assay: inhibition of tumour cell growth, NCI panel, 48 h).

Structure (SMILES) | TGI | GI50
COc1ccc(/C=C2\NC(=S)N(/C=C3\C(=O)Oc4ccccc4C3=O)C2=O)cc1OC | > 100 µM | –
CC(C)Cn1cnc2c(SCc3ccc(Cl)cc3Cl)nc(N)nc21 | > 100 µM | –
O=C1NC2=C(CCCC/C2=N\O)C12CCCCC2 | > 100 µM | –
O=[N+]([O-])c1ccc(C[P+](c2ccccc2)(c2ccccc2)c2ccccc2)cc1 | > 100 µM | –
CCNC(=O)C1CCCN1C(=O)C(CCCN=C(N)N)NC(=O)C(CC(C)C)NC(=O)C(CC(C)C)NC(=O)C(Cc1ccc(O)cc1)NC(=O)C(CO)NC(=O)C(Cc1c[nH]c2ccccc12)NC(=O)C(Cc1cnc[nH]1)NC(=O)C1CCC(=O)N1 (stereo not drawn) ([pGlu]HWSYLLRP-NHEt; configuration not given here) | > 100 µM | > 100 µM
CC[C@@]1(O)C(=O)OCc2c1cc1n(c2=O)Cc2c-1nc1ccccc1c2/C=N\NC(=O)C(N)CO (stereo partly drawn) | > 100 µM | –
COc1cc(C(=O)/C=C/c2ccc(OCC#N)cc2)cc(OC)c1OC | 97.7 µM | –
CC1OC(OC2C(O)COC(OC3C(C)OC(OC4C(OC(=O)[C@]56CCC(C)(C)C[C@@H]5C5=CCC7[C@@]8(C)C[C@H](O)[C@H](OC9OC(CO)C(O)C(OC%10OC(CO)C(O)C(O)C%10O)C9O)[C@@](C)(CO)[C@@H]8CC[C@@]7(C)[C@]5(C)CC6)OCC(O)C4O)C(O)C3OC3OCC(O)(CO)C3O)C2O)C(O)C(O)C1O (stereo partly drawn) | 13.7 µM | –
c1coc(CNc2ncnc3[nH]ncc23)c1 | > 100 µM | –
CC[C@H](CCCC[C@H]1CC[C@@H]2CC(=O)C[C@H]12)OC | > 100 µM | –
ClCc1cccc2c(CCl)cccc12 | 7.69 µM | 2.28 µM
O=C1N(C2CCCCC2)CC12CCCCC2 | > 100 µM | –
COC(=O)C1=C(C)NC(C)=C(C(=O)OC)C1c1ccccc1NO | > 100 µM | –
BrC1=CCC23CC=C(Br)[C@H]4CC2(COC3)C[C@@H]1O4 (stereo partly drawn) | > 100 µM | –
COC(=O)C(Cc1ccccc1)NP(=O)(O)OCC1OC(n2cc(Br)c(=O)[nH]c2=O)CC1O (stereo not drawn) | > 100 µM | –
CS(=O)(=O)OC1CCC2(C#N)CCC1C2=O (stereo not drawn) | > 100 µM | –
